Results reported in PubChem BioAssay AID624417 (National Center for Advancing Translational Sciences (NCATS), 2012).
Screen size: about 410,000 compounds; about 6,400 (1.6%) were called active. Inconclusive results, whose numbers are uncertain, are shown with a selection of clear calls. Calls come from the whole dose curve; as a rule, active = well fitted inhibition curve with a large enough effect; inconclusive = small, poorly fitted or top-dose-only effect; inactive = no such curve, though single readings can be large or run the other way. Potencies of inconclusive entries are left out as doubtful fits.

Target: Glucagon-like peptide 1 receptor (Homo sapiens) (UniProt P43220)
Experiment: qHTS of GLP-1 Receptor Inverse Agonists (Inhibition Mode); note: nearly all actives have a fitted effect of over 55% in size
Settings: HEK293 GLP-1R CRE-luciferase, luminescence, 24 h, GLP-1R form is constitutively active; series mostly up to 38.3 µM
In short: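 Seeding at 200 cells/uL, 12 h culture, 24 hr compound treatment, then luciferase reagent and a luminescence read; cells are HEK293 stably expressing a constitutively active GLP-1R plus cAMP-responsive luciferase.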
Potency is the fitted concentration of half-maximal effect; tags give direction and shape of the fitted curve.

Sequence of UniProt P43220 (P43220 whole entry, looked up): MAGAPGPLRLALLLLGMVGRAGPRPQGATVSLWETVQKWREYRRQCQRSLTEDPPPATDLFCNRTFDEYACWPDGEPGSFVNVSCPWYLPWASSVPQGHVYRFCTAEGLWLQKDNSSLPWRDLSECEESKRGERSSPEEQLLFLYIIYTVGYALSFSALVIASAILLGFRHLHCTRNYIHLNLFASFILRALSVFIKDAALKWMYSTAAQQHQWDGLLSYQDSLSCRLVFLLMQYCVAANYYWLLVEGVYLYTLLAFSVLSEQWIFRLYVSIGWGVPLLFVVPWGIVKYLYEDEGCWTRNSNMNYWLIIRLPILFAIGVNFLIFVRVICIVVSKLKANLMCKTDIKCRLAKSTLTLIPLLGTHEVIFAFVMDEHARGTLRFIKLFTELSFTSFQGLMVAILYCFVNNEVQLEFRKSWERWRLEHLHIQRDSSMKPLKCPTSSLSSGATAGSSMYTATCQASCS

Compound | Potency
Cc1ccc(N2C(=O)CS/C2=N\C(=S)Nc2ccccc2)cc1 | inconclusive [inhibitor, single point]
COc1c(OC)c(O)c2c(=O)c(O)c(-c3ccccc3)oc2c1OC | inconclusive [inhibitor, partial curve, poor fit]
COC(=O)c1cc(CSc2ncnc3sccc23)oc1C | inconclusive [inhibitor, single point]
COc1cc(/C=C2\N=C(c3ccccc3)NNC2=O)cc(OC)c1OC | inconclusive [inhibitor, full curve]
COc1cccc(/C=C/C(=O)c2ccc[nH]2)c1 | inactive
C/C(=N\N=C(/N)SC1CC(=O)N(c2ccccc2)C1=O)c1cccs1 (centres undefined) | inactive
CN(CC(=O)N1CCN(Cc2ccccc2)CC1)C(=O)Cc1ccc(Cl)c(Cl)c1 | inconclusive [inhibitor, partial curve, poor fit]
Cc1ccccc1NC(=O)CCn1nc(-c2ccccc2)c2ccccc2c1=O | inactive
O[C@@H]1CN(Cc2cccs2)[C@@H](c2ccc(Cl)cc2)C[C@H]1n1cc(C2CC2)nn1 | inconclusive [inhibitor, single point]
Cc1ccc(S(=O)(=O)N(Cc2ccc(Cl)cc2)c2ccccc2C(=O)NCc2ccco2)cc1 | inconclusive [inhibitor, partial curve, poor fit]
C[C@@H]1NC(=O)c2cc([N+](=O)[O-])cc(I)c2NCCCC[C@@H](C(N)=O)NC(=O)[C@H](CCC(=O)O)NC1=O | inactive
C=CCNc1nc(NCCOC)c2sc(-c3ccccc3)cc2n1 | inconclusive [inhibitor, single point]
CC(C)Oc1cccc(C(=O)C2CCCN(Cc3cccn3-c3ccccn3)C2)c1 (centres undefined) | inconclusive [inhibitor, partial curve, poor fit]
COCCNC(=O)CN1C(=O)COc2ccc(S(=O)(=O)N3CCCC3)cc21 | inactive
O=C(NCCC1=CCCCC1)c1cccc(S(=O)(=O)N2CCCCC2)c1 | inconclusive [inhibitor, partial curve, poor fit]
COc1ccccc1NS(=O)(=O)c1cccc(C(=O)N2CCN(Cc3ccc4c(c3)OCO4)CC2)c1 | inconclusive [inhibitor, partial curve, poor fit]
COc1cccc(NC(=O)C(=O)NCC(c2ccco2)N2CCc3ccccc3C2)c1 (centres undefined) | inconclusive [inhibitor, partial curve, poor fit]
CCNc1nc2c(c(=O)n(C)c(=O)n2C)n1CCCc1ccccc1 | inconclusive [inhibitor, full curve, poor fit]
COc1ccccc1NC(=O)Cn1c(=O)n(CC2CCC(C(=O)NCCc3ccccc3)CC2)c(=O)c2ccccc21 (centres undefined) | inactive
CCCN(CC(=O)Nc1ccccc1C)C(=O)c1ccc(N2CCCC2=O)cc1 | inactive
COc1ccc(OC)c2c(C)cc(N3CCCCCC3)nc12 | inconclusive [inhibitor, partial curve]
CC1(Cc2ccccc2OC(F)(F)F)C(=O)Nc2cc(-c3ccccc3Cl)ccc21 (centres undefined) | active: 5.62 µM

Compound | Potency
O=C(c1ccc(-c2ccc([N+](=O)[O-])cc2)o1)N1CCCCCCC1 | inconclusive [inhibitor, single point]
O=C(NCc1ccccc1)C1=C[C@@H](c2csc3ccccc23)C[C@@H](OCc2ccc(CO)cc2)O1 | active: 8.91 µM
Cc1ccccc1N1CC(c2nc3ccccc3n2Cc2ccc(Br)cc2)CC1=O (centres undefined) | inconclusive [inhibitor, partial curve, poor fit]
Cc1cccc(-c2nnc(SCc3ccc(C#N)cc3)n2Cc2ccco2)c1 | inconclusive [inhibitor, single point]
O=C(CCCN1C(=O)/C(=C/c2ccccc2Cl)SC1=S)NNC(=O)c1ccccc1 | inconclusive [inhibitor, single point]
COC(=O)c1ccc(NC(=O)CN(C2CCCCC2)S(C)(=O)=O)cc1 | inconclusive [inhibitor, single point]
O=C(Cn1c(-c2cccs2)cc2ccccc21)N1CCN(c2ccc(F)cc2)CC1 | inactive
O=C(OCc1cn([C@H]2CN(Cc3cccs3)[C@@H](c3ccccc3)C[C@@H]2O)nn1)c1ccccc1 | inconclusive [inhibitor, single point]
CCN(CC)C(=O)C1=C(C)N(Cc2ccc(C(C)(C)C)cc2)C(=O)C(CC(=O)NC2CCCC2)C1 (centres undefined) | inconclusive [inhibitor, single point]
COc1ccc(-c2cc(NC=O)c3ncc(-c4ccc(C(C)=O)cc4)n3c2)cn1 | inconclusive [inhibitor, single point]
Cc1ccsc1-c1nc(CN(C)C(C2CC2)C2CC2)c(C)o1 | inconclusive [inhibitor, partial curve, poor fit]
O=C(c1ccc2nc(-c3ccco3)c(-c3ccco3)nc2c1)N1CCN(c2ccccc2)CC1 | inconclusive [inhibitor, single point]
O=C(Nc1cc(Cl)ccc1Cl)c1cc(S(=O)(=O)N2CCc3ccccc3C2)ccc1F | inactive
COc1ccc(-c2csc(Nc3cc(C)ccn3)n2)cc1OC | inconclusive [inhibitor, single point]
Cc1ccc(Nc2nc(N3CCOCC3)nc(N3CCOCC3)n2)cc1Cl | inconclusive [inhibitor, full curve, poor fit]
C/C=C1\COC(C(=O)NCCN2CCCC2)(C(F)(F)F)C=C1C=C1CCCCC1 (centres undefined) | inconclusive [inhibitor, single point]
CCc1[nH]nc(C(=O)NC2CCCc3c2cnn3-c2cc(C)cc(C)c2)c1C (centres undefined) | inconclusive [inhibitor, partial curve, poor fit]
COc1ccc(CNC(=O)C(=O)Nc2cccc(C)c2C)cc1 | inactive
O=C1/C(=C/c2ccccc2Cl)SC(=S)N1CCCC(=O)N(CCO)c1ccccc1 | inconclusive [inhibitor, partial curve, poor fit]
CCOc1ccc(/C=C/c2nc(C#N)c(N3CCC(C)CC3)o2)cc1 | inactive
CCOc1ccc(-c2n[nH]c(C)c2Oc2ccc(OC)cc2)c(O)c1 | inconclusive [inhibitor, partial curve, poor fit]
COc1cccc(OCC(=O)NC2CCS(=O)(=O)C2)c1 (centres undefined) | inactive

Compound | Potency
COc1ccc(NS(=O)(=O)c2cc(NS(=O)(=O)c3cccs3)ccc2C)cc1 | inconclusive [inhibitor, single point]
COc1cc(NC(=O)CCS(=O)(=O)c2ccc3c(c2)n(C)c(=O)c(=O)n3C)cc(OC)c1 | inactive
O=C(NC1CCN(Cc2ccccc2)C1)c1cc(COc2ccc(F)cc2F)on1 (centres undefined) | inconclusive [inhibitor, single point]
COc1cc(N=c2ssnc2Cl)cc(OC)c1 | inconclusive [inhibitor, partial curve, poor fit]
O=S(=O)(c1ccc(SCCOc2ccccc2Cl)nc1)N1CCCC1 | inconclusive [inhibitor, single point]
CC(Nc1ccccc1)c1cc(Cl)ccc1O (centres undefined) | inconclusive [inhibitor, single point]
CCCc1cc(=O)oc2c(C)c(OCC(=O)NC3CC(C)(C)NC(C)(C)C3)ccc12 | inconclusive [inhibitor, single point]
CCOc1ccc(N(CC(=O)NCCOc2ccccc2OC)S(=O)(=O)c2ccccc2)cc1 | inconclusive [inhibitor, single point]
COc1cccc(NC(=O)Cn2c(-c3nonc3N)nc3ccccc32)c1 | inactive
CCCC(=O)Nc1ccc2c(c1)C(=O)N(CCC(=O)O)C2=O | inactive
CCOc1c(Cl)cc(CNCc2ccccn2)cc1OC | inactive
O=C(C[C@H]1C[C@H](C(=O)N2CCOCC2)[C@@]2(CCC3CCCC3)c3[nH]c4cc(-c5ccco5)ccc4c3CCN2C1=O)NCc1ccco1 | inconclusive [inhibitor, single point]
O=S(=O)(c1ccc(S(=O)(=O)N(Cc2ccccc2)Cc2ccco2)cc1)N1CCCC1 | inactive
O=C(N/N=C(\c1ccccc1)c1ccccn1)c1ccccc1Cl | inconclusive [inhibitor, single point]
COc1ccc(-c2nc(C)c(CCNS(=O)(=O)c3ccc(F)cc3)s2)cc1OC | inconclusive [inhibitor, single point]
Cc1cccc(C2=NN(c3ccc(Br)cc3)[C@@H](C(=O)N3CCOC3=O)[C@@H]2c2ccc(F)cc2)c1 | active: 8.91 µM
Cc1cccc(N2CCN(C(=O)c3csc4ccccc34)CC2C)c1 (centres undefined) | inconclusive [inhibitor, single point]
COCCn1c(SCC(=O)N2CCCc3ccccc32)nc2ccccc2c1=O | inconclusive [inhibitor, full curve]
Cc1sc(NC(=O)c2ccc(F)cc2)c(CN2CCCCCC2)c1C | inconclusive [inhibitor, single point]
Cc1ccccc1CS(=O)(=O)c1cnc2ccccc2n1 | inconclusive [inhibitor, single point]
